This is one part of the list.
What was measured:
HSkMC = human skeletal muscle cells; assay: cytotoxicity call (relative viability < 0.9); details: 10 µM
HepG2 = assay: cytotoxicity call (relative viability < 0.9); details: 10 µM
S. aureus RN4220 = assay: growth inhibition call (relative growth <= 0.2); details: 50 µM

Row | Compound | cytotoxicity call (HSkMC) | cytotoxicity call (HepG2) | growth inhibition call (S. aureus RN4220)
1 | C[C@@H]1CN([C@@H](C)CO)C(=O)c2cc(NC(=O)Nc3cccc4ccccc34)ccc2O[C@@H](C)CCCCO[C@@H]1CN(C)C(=O)NC1CCCCC1 | inactive | inactive | inactive
2 | CC(C)NC(=O)N(C)C[C@H]1Oc2ncc(-c3ccc(C(=O)N(C)C)cc3)cc2C(=O)N([C@@H](C)CO)C[C@H]1C | inactive | inactive | inactive
3 | C[C@H](CO)N1C[C@H](C)[C@@H](CN(C)Cc2ccc(Oc3ccccc3)cc2)Oc2c(NS(=O)(=O)c3cccs3)cccc2C1=O | inactive | inactive | inactive
4 | COC(=O)c1c2oc(c1C(=O)OC)C(=O)N[C@H](Cc1ccccc1)Cn1cc(nn1)[C@H](Cc1ccccc1)NC(=O)N[C@@H](COC(=O)NCCCCCC(=O)NO)CC2 | inactive | inactive | inactive
5 | C[C@H](CO)N1C[C@H](C)[C@H](CN(C)C(=O)Nc2cccc3ccccc23)OCc2cn(nn2)CCCC1=O | inactive | inactive | inactive
6 | O=C(C1=C[C@H](c2ccc(C(F)(F)F)cc2)C[C@H](OCc2ccc(CO)cc2)O1)N1CCN(Cc2ccc3c(c2)OCO3)CC1 | inactive | inactive | inactive
7 | C[C@@H]1CCCCO[C@H](CN(C)C(=O)Nc2ccc3c(c2)OCO3)[C@@H](C)CN([C@H](C)CO)C(=O)c2cc(NC(=O)c3ccncc3)ccc2O1 | inactive | inactive | inactive
8 | C[C@H]1CN([C@@H](C)CO)C(=O)Cc2cc(NS(=O)(=O)c3ccccc3)ccc2O[C@@H]1CN(C)CC1CC1 | inactive | inactive | inactive
9 | CC(C)NC(=O)Nc1ccc2c(c1)C(=O)N([C@@H](C)CO)C[C@@H](C)[C@H](CN(C)C(=O)NC1CCCCC1)O2 | inactive | inactive | inactive
10 | C[C@@H]1CN([C@H](C)CO)C(=O)c2cc(NC(=O)Nc3ccc4c(c3)OCO4)ccc2O[C@@H](C)CCCCO[C@@H]1CN(C)CC1CCCCC1 | inactive | inactive | inactive
11 | CNC[C@H]1OCCCC[C@@H](C)Oc2ccc(NC(=O)Nc3cccc4ccccc34)cc2C(=O)N([C@H](C)CO)C[C@@H]1C | inactive | inactive | inactive
12 | C[C@@H]1CN([C@H](C)CO)C(=O)c2cc(NS(=O)(=O)c3cn(C)cn3)ccc2O[C@@H]1CN(C)S(=O)(=O)c1ccccc1 | inactive | inactive | inactive
13 | O[C@H]1CCCSc2ccccc21 | inactive | inactive | inactive
14 | COc1cc(Nc2ncc3c(n2)-c2ccc(Cl)cc2C(c2c(F)cccc2OC)=NC3)ccc1C(=O)O | active | active | inactive
15 | C[C@@H]1CCCCO[C@@H](CN(C)CC2CC2)[C@@H](C)CN([C@H](C)CO)C(=O)c2cc(NC(=O)c3ccccc3)ccc2O1 | inactive | inactive | inactive
16 | O=C1C=C2CC3(O)COc4cc(O)ccc4C3=C2C=C1O (centres undefined) | inactive | inactive | inactive
17 | C[C@@H]1CN([C@@H](C)CO)C(=O)c2cccc(NC(=O)C3CCCCC3)c2O[C@@H]1CN(C)Cc1ccc(C(=O)Nc2ccccc2N)cc1 | inactive | active | inactive
18 | O=C1N[C@H](Cc2c[nH]c3ccccc23)COC(=O)[C@@H](Cc2ccc(F)cc2)CCC=CC[C@H]1CC(=O)N(CCO)Cc1ccccc1 | inactive | active | inactive
19 | C[C@H](CO)N1C[C@H](C)[C@H](CN(C)S(=O)(=O)c2cn(C)cn2)OCCCC[C@H](C)Oc2ccc(NS(=O)(=O)c3ccccc3)cc2C1=O | inactive | inactive | inactive

Row | Compound | cytotoxicity call (HSkMC) | cytotoxicity call (HepG2) | growth inhibition call (S. aureus RN4220)
20 | C[C@@H]1CCCCO[C@@H](CN(C)Cc2ccc(Cl)c(Cl)c2)[C@H](C)CN([C@@H](C)CO)C(=O)c2cc(NS(=O)(=O)c3ccccc3)ccc2O1 | active | active | inactive
21 | C[C@@H]1CN([C@@H](C)CO)C(=O)c2cc(NS(C)(=O)=O)ccc2O[C@@H](C)CCCCO[C@H]1CN(C)S(=O)(=O)c1cccs1 | inactive | inactive | inactive
22 | CCN1CC[C@]2(CN(S(C)(=O)=O)CC23CCN(Cc2cnn(C)c2)CC3)C1=O | inactive | inactive | inactive
23 | C[C@H]1CN([C@@H](C)CO)C(=O)Cc2cc(NC(=O)Nc3ccc(C(F)(F)F)cc3)ccc2O[C@@H]1CN(C)Cc1ccc2c(c1)OCO2 | inactive | inactive | inactive
24 | C[C@@H]1CN([C@@H](C)CO)S(=O)(=O)c2ccc(-c3ccccc3F)cc2O[C@@H]1CN(C)Cc1cncnc1 | inactive | inactive | inactive
25 | C[C@H](CO)N1C[C@H](C)[C@H](CN(C)C(=O)Cc2ccccc2)OCCCC[C@H](C)Oc2ccc(NC(=O)NC3CCCCC3)cc2C1=O | inactive | inactive | inactive
26 | COC(=O)CCn1ccc(=O)[nH]c1=O | inactive | inactive | inactive
27 | C[C@@H]1CCCCO[C@@H](CN(C)C(=O)Nc2ccccc2)[C@H](C)CN([C@@H](C)CO)C(=O)c2cc(NC(=O)c3ccccc3)ccc2O1 | inactive | inactive | inactive
28 | CSCCC(NC(=O)C(Cc1c[nH]c2ccccc12)NC(=O)CCNC(=O)OC(C)(C)C)C(=O)NC(CC(=O)O)C(=O)NC(Cc1ccccc1)C(N)=O (centres undefined) | inactive | inactive | inactive
29 | C[C@@H]1CN([C@H](C)CO)C(=O)c2cc(NC(=O)c3ccncc3)ccc2O[C@@H](C)CCCCO[C@@H]1CN(C)S(=O)(=O)c1ccc(Cl)cc1 | inactive | inactive | inactive
30 | C[C@@H]1CN([C@H](C)CO)C(=O)c2cccc(NC(=O)Nc3ccc(C(F)(F)F)cc3)c2O[C@@H]1CN(C)Cc1ccccc1 | inactive | inactive | inactive
31 | Cc1noc(C)c1S(=O)(=O)Nc1ccc2c(c1)CC(=O)N([C@H](C)CO)C[C@@H](C)[C@H](CN(C)C(=O)NC1CCCCC1)O2 | inactive | inactive | inactive
32 | COc1ccc(NC(=O)N(C)C[C@@H]2OCCCC[C@@H](C)Oc3ccc(NC(=O)Nc4ccc5c(c4)OCO5)cc3C(=O)N([C@H](C)CO)C[C@@H]2C)cc1 | inactive | inactive | inactive
33 | Cc1noc(C)c1S(=O)(=O)Nc1ccc2c(c1)C(=O)N([C@H](C)CO)C[C@H](C)[C@H](CN(C)C(=O)Nc1ccccc1)OCCCC[C@@H](C)O2 | inactive | inactive | inactive
34 | C[C@H](CO)N1C[C@H](C)[C@@H](CN(C)S(=O)(=O)c2ccccc2)OCCCC[C@H](C)Oc2ccc(NC(=O)Nc3cccc4ccccc34)cc2C1=O | inactive | inactive | inactive
35 | O=C1NCC[C@H]2[C@H]1N=C(N1CCCCC1)N2[C@H]1O[C@H](CO)[C@@H](O)[C@@H]1O | inactive | inactive | inactive
36 | O=C(CN1CCOCC1)N[C@H]1CC[C@@H](CCNC(=O)C2CCC2)O[C@H]1CO | inactive | inactive | inactive
37 | CCN1CCN(C2=C(NS(=O)(=O)c3ccc(Br)s3)C(=O)c3ccccc3C2=O)CC1 | inactive | active | inactive
38 | S=c1[nH]cnc2nc[nH]c12 | inactive | active | inactive

From the antibiotic and cytotoxicity screens of Wong et al. (2023)
